# Measured values taken from the supplement of paper PMC4723716.
# ± gives the uncertainty stated by the source. Over roughly 9,900 compounds, “viability index relative to DMSO control” has its median near 1; the lowest 2% begin near 0.85. The list shows a part of the results.
# Tested on: Plasmodium falciparum NF54 stage V gametocytes
# Experiment: viability index relative to DMSO control (fraction); higher = less gametocyte killing
# Details: 2.5 µM, incubation time: 72 h
# Procedure, shortened: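 Gametocytes (P. falciparum NF54, stage V) were treated with compound at 2.5 µM for 72 hr at 37°C in low oxygen, in serum-free medium at 0.75% gametocytemia and 1.25% hematocrit. Counts of 20–70 µm2 red particles, taken from one field per well after MitoTracker Red CMXRos with saponin, were divided by the plate mean of solvent-only wells. This ratio is the viability index.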
# [1] = library set: Broad Institute DOS
Compound,viability index [1],viability index (library set: Broad Institute Blood Stage)
CO[C@@H]1CN(C)C(=O)c2ccc(NS(=O)(=O)CC(F)(F)F)cc2OC[C@@H](C)N(Cc2nccs2)C[C@@H]1C,1.12 ± 0.091,–
CC(=O)N1CC2(C1)[C@@H](c1ccccc1)[C@H](CO)N2C(=O)Cc1ccccc1,1.13 ± 0.043,–
C[C@H](NC(=O)C[C@@H]1CC[C@H]2[C@H](COc3ccc(NC(=O)C4CCOCC4)cc3C(=O)N2C)O1)c1ccccc1,1.18 ± 0.089,–
Cc1noc(C)c1S(=O)(=O)Nc1ccc2c(c1)C(=O)N([C@@H](C)CO)C[C@H](C)[C@@H](CN(C)C(=O)Nc1cccc3ccccc13)OCCCC[C@H](C)O2,0.984 ± 0.043,–
O=C(C[C@@H]1C=C[C@H](NC(=O)Cc2ccccn2)[C@H](CO)O1)NCCc1ccncc1,1.02 ± 0.09,–
O=C(NC[C@@H]1[C@@H](c2ccccc2)[C@H](CO)N1Cc1cccnc1)c1ccccn1,1.1 ± 0.067,–
CCS(=O)(=O)Nc1ccc2c(c1)C(=O)N(C)[C@H]1CC[C@H](CC(=O)NC3CCCCC3)O[C@@H]1CO2,0.999 ± 0.11,–
C[C@H](CO)N1C[C@H](C)[C@H](CN(C)CC2CCCCC2)OCCCC[C@H](C)Oc2ccc(NC(=O)Nc3ccc(C(F)(F)F)cc3)cc2C1=O,1.06 ± 0.063,–
CN(C[C@@H]1[C@H](c2ccccc2)[C@H](CO)N1Cc1ccccn1)S(C)(=O)=O,0.902 ± 0.069,–
CN1C(=O)c2cc(NC(=O)c3ccc(F)c(F)c3)ccc2OC[C@H]2O[C@H](CC(=O)N3CCCCC3)CC[C@H]21,1.04 ± 0.044,–
COc1ccc2c3c([C@@H](CO)N(Cc4ccc(Cl)cc4)C[C@]33CCN(CC4CC4)CC3)n(C)c2c1,0.909 ± 0.1,–
COCCNC(=O)C[C@@H]1CC[C@@H]2[C@@H](COc3ccc(NC(=O)Nc4cccc(F)c4)cc3C(=O)N2C)O1,1.17 ± 0.1,–
CO[C@H]1CN(C)C(=O)c2cc(NS(=O)(=O)CC(F)(F)F)ccc2OC[C@H](C)NC[C@H]1C,1.03 ± 0.038,–
COCCNC(=O)C[C@H]1CC[C@H]2[C@@H](COC[C@@H](O)CN2S(=O)(=O)c2ccccc2F)O1,1.08 ± 0.054,–
O=C(Cc1ccccn1)N[C@@H]1CC[C@H](CCNS(=O)(=O)c2cccc(F)c2)O[C@H]1CO,0.895 ± 0.17,–
CCS(=O)(=O)Nc1ccc2c(c1)C(=O)N(C)[C@@H]1CC[C@H](CC(=O)N[C@@H]3CCN(Cc4ccccc4)C3)O[C@H]1CO2,1.06 ± 0.07,–
CC(C)(C)[S@@](=O)N1Cc2cc(C(=O)NCCN3CCCC3)nc(-c3cccc(-c4ccc(C#N)cc4)c3)c2[C@H]1CCO,1.07 ± 0.074,–
COCC(=O)N1C[C@H]2[C@@H](c3ccccc31)[C@@H](CO)N2Cc1cc(F)ccc1F,0.996 ± 0.051,–
CCC(=O)N1CC(=O)N2[C@@H](CO)[C@H](c3ccc(-c4ccc(C#N)cc4)cc3)[C@@H]2C1,0.939 ± 0.026,–
C[C@H](CO)N1C[C@H](C)[C@H](CN(C)C(=O)NC2CCCCC2)OCc2cn(nn2)CCCC1=O,0.9869 ± 0.0098,–
CCCN1C[C@@H](C)[C@@H](OC)CN(C)C(=O)c2ccc(NS(=O)(=O)c3cn(C)cn3)cc2OC[C@@H]1C,1.04 ± 0.11,–
COCC(=O)N1CC(=O)N2[C@H](CO)[C@@H](c3ccc(-c4ccncc4)cc3)[C@H]2C1,0.983 ± 0.1,–
CN1C(=O)c2cc(NC(=O)c3cnccn3)ccc2OC[C@@H]2O[C@@H](CC(=O)NCC3CCCCC3)CC[C@H]21,0.997 ± 0.055,–
C[C@@H]1CCCCO[C@@H](CN(C)Cc2ccncc2)[C@@H](C)CN([C@@H](C)CO)C(=O)c2cc(NC(=O)Cc3ccccc3)ccc2O1,1.07 ± 0.041,–

Compound,viability index [1],viability index (library set: Broad Institute Blood Stage)
CN1c2ccc(Br)cc2[C@@H]2[C@@H](CCN2C(=O)Nc2cccc(F)c2)[C@H]1CO,0.974 ± 0.031,–
C[C@@H]1CN([C@H](C)CO)C(=O)c2cc(Br)cnc2O[C@H]1CN(C)C(=O)Nc1ccc2c(c1)OCO2,0.988 ± 0.075,–
O=C(CN1CCOCC1)N1CC2(C1)[C@H](c1ccccc1)[C@@H](CO)N2Cc1cccc(F)c1,1.056 ± 0.0046,–
COc1ccc(S(=O)(=O)Nc2ccc3c(c2)OC[C@H](C)NC[C@H](C)[C@H](OC)CN(C)C3=O)cc1,1.03 ± 0.055,–
CO[C@H]1CN(C)C(=O)c2ccc(NC(=O)C3CCC3)cc2OC[C@H](C)N(Cc2ccccn2)C[C@H]1C,1.09 ± 0.018,–
O=C(CN1CCOCC1)N1CC2(C1)[C@@H](c1ccccc1)[C@@H](CO)N2Cc1cccc(F)c1,1.08 ± 0.084,–
CS(=O)(=O)N1CC2(C1)[C@H](c1ccccc1)[C@@H](CO)N2Cc1ccccc1,1.08 ± 0.072,–
N#C[C@H]1[C@@H](c2ccccc2C2=CCCC2)[C@H](CO)N1C(=O)NC1CCCCC1,1.06 ± 0.032,–
CO[C@@H]1CN(C)C(=O)c2ccc(NC(=O)c3nc4ccccc4s3)cc2OC[C@H](C)N(Cc2cccnc2)C[C@H]1C,1.01 ± 0.021,–
Cc1cccc(S(=O)(=O)N2C[C@H]3[C@@H](c4ccccc42)[C@@H](CO)N3C(=O)c2ccccc2)c1,1.09 ± 0.033,–
CC(C)CC#Cc1ccc([C@@H]2[C@@H](CO)N3C(=O)CN(C(=O)c4cccc(F)c4)C[C@H]23)cc1,0.9935 ± 0.0079,–
C/C=C/c1ccccc1[C@@H]1[C@@H](C#N)N(C(=O)NC2CCCCC2)[C@H]1CO,1.07 ± 0.016,–
COc1ccc(S(=O)(=O)Nc2ccc3c(c2)CC(=O)N([C@@H](C)CO)C[C@H](C)[C@@H](CN(C)Cc2ccc(C(=O)Nc4ccccc4N)cc2)O3)cc1,0.872 ± 0.11,–
C[C@@H]1CN([C@@H](C)CO)C(=O)c2ccccc2-c2ccccc2CO[C@H]1CN(C)Cc1cccc(C(=O)O)c1,0.987 ± 0.016,–
C[C@H](CO)N1C[C@H](C)[C@H](CN(C)Cc2ccc3c(c2)OCO3)Oc2ncc(-c3cccc(C(F)(F)F)c3)cc2C1=O,0.976 ± 0.025,–
CN1C(=O)c2cc(NC(=O)Cc3cccs3)ccc2OC[C@@H]2O[C@H](CC(=O)NCCCN3CCOCC3)CC[C@@H]21,1.17 ± 0.11,–
O=C(C[C@H]1CC[C@H]2[C@@H](COC[C@@H](O)CN2C(=O)c2cc(Cl)cc(Cl)c2)O1)N1CCc2ccccc2C1,1.018 ± 0.0091,–
C[C@@H]1CN([C@@H](C)CO)C(=O)c2cc(NC(=O)Nc3ccc4c(c3)OCO4)ccc2O[C@@H](C)CCCCO[C@@H]1CN(C)C(=O)CCCN(C)C,1.08 ± 0.023,–
CO[C@H]1CN(C)C(=O)c2cc(NS(C)(=O)=O)ccc2OC[C@H](C)N(C(=O)C2CCOCC2)C[C@@H]1C,1.14 ± 0.061,–
C(=C\c1ccc([C@H]2[C@@H]3CN(Cc4ccc5c(c4)OCO5)C[C@H]2N3)cc1)/c1ccccc1,1.01 ± 0.032,–
C/C=C/c1ccc([C@H]2[C@H](CO)N[C@H]2CN(CC(C)C)C(=O)c2ccccn2)cc1,0.962 ± 0.042,–
CCCNC(=O)N1CC(=O)N2[C@@H](CO)[C@H](c3ccc(C#Cc4cccc(OC)c4)cc3)[C@@H]2C1,1 ± 0.028,–
O=C(Nc1cccc(F)c1)N1CCCCN2[C@@H](CO)[C@@H](c3ccc(C#Cc4cccnc4)cc3)[C@@H]2C1,0.979 ± 0.089,–
COc1ccc(S(=O)(=O)N(C)C[C@H]2Oc3c(NC(=O)c4nc5ccccc5s4)cccc3C(=O)N([C@@H](C)CO)C[C@H]2C)cc1,0.901 ± 0.025,–

Compound,viability index [1],viability index (library set: Broad Institute Blood Stage)
CO[C@@H]1CN(C)C(=O)c2cc(NS(=O)(=O)c3cn(C)cn3)ccc2OC[C@@H](C)NC[C@H]1C,1.01 ± 0.095,–
CC(C)(C)[S@@](=O)N1Cc2cc(C(=O)NCCc3ccncc3)nc(-c3cccc(-c4ccccc4)c3)c2[C@H]1CCO,–,0.763 ± 0.047
COc1cccc(CN2C[C@@]3(C2)CN([C@@H](CO)c2[nH]c4cc(OC)ccc4c32)C(=O)C2CC2)c1,0.956 ± 0.11,–
CC(=O)N1[C@@H](CO)[C@@H](c2ccccc2)C12CN(S(=O)(=O)c1ccccc1)C2,1.08 ± 0.14,–
C[C@H]1CN([C@@H](C)CO)C(=O)CCCn2cc(nn2)CO[C@@H]1CN(C)C(=O)Nc1ccc2c(c1)OCO2,0.999 ± 0.0048,–
CN1C(=O)c2cc(NC(=O)c3ccc4c(c3)OCO4)ccc2OC[C@@H]2O[C@@H](CC(=O)O)CC[C@@H]21,1.13 ± 0.028,–
O=C(N[C@H]1CC[C@@H](CCNS(=O)(=O)c2ccc(F)cc2)O[C@@H]1CO)C1CCC1,1.15 ± 0.12,–
COc1ccc2c3c([C@@H](CO)N(C[C@]33CN(C)C3)C(=O)Cc3ccccc3)n(C)c2c1,0.9755 ± 0.00056,–
COc1ccccc1-c1ccc([C@H]2[C@@H](CO)N(C(C)=O)[C@@H]2CN(C)C(C)=O)cc1,0.9746 ± 0.009,–
O=C(C[C@H]1C[C@H]2c3cc(NC(=O)NC4CCCC4)ccc3O[C@H]2[C@@H](CO)O1)NCc1ccccc1F,1.15 ± 0.051,–
CO[C@@H](CN(C)C(=O)Nc1ccc(Cl)cc1)[C@@H](C)CN(Cc1ccccc1Cl)[C@@H](C)CO,1.01 ± 0.074,–
Cc1noc(C)c1NC(=O)Nc1ccc2c(c1)C(=O)N([C@H](C)CO)C[C@H](C)[C@@H](CN(C)Cc1ccc3c(c1)OCO3)OCCCC[C@H](C)O2,1.05 ± 0.064,–
Cc1ccc(S(=O)(=O)Nc2ccc3c(c2)CC(=O)N([C@H](C)CO)C[C@H](C)[C@@H](CN(C)S(=O)(=O)c2ccccc2)O3)cc1,0.936 ± 0.055,–
O=C(C1CCOCC1)N1CC2(C1)[C@@H](c1ccccc1)[C@@H](CO)N2Cc1ccccc1F,1.01 ± 0.024,–
CCC(=O)N1C[C@@H](C)[C@@H](OC)CN(C)C(=O)c2ccc(NC(=O)CC(F)(F)F)cc2OC[C@@H]1C,1.11 ± 0.03,–
CC1C=NC(S(=O)(=O)N2CC[C@@H]3[C@@H](CO)N(C)c4ccc(C5=CCCCC5)cc4[C@@H]32)=N1 (stereo not given in full),1.019 ± 0.0095,–
CCCNC(=O)N1[C@@H](CO)[C@@H](c2ccccc2)C12CN(C(=O)C1CCCCC1)C2,1.08 ± 0.041,–
C[C@H]1CN([C@@H](C)CO)C(=O)c2cccc(NS(=O)(=O)c3cn(C)cn3)c2O[C@@H]1CN(C)Cc1ccc(Oc2ccccc2)cc1,1.01 ± 0.15,–
CS(=O)(=O)N1CC(=O)N2[C@H](C1)[C@@H](c1ccc(Br)cc1)[C@@H]2CO,1 ± 0.062,–
O=C(NCCCN1CCOCC1)[C@@H]1[C@@H](CO)[C@@H]2Cn3c(ccc(C4=CCCCC4)c3=O)[C@H]1N2,1.03 ± 0.1,–
CCN1CC(=O)N2[C@@H](CO)[C@H](c3ccc(Br)cc3)[C@@H]2C1,1.02 ± 0.11,–
COc1ccc2c3c([nH]c2c1)[C@@H](CO)N(C[C@]31CCN(Cc2ccncc2)CC1)C(=O)CC1CC1,0.998 ± 0.12,–
